The values that follow come from PubChem BioAssay AID1508642 (National Center for Advancing Translational Sciences (NCATS), 2021).

The structures appear in SMILES notation. Out of some 43,000 compounds screened, about 200 (0.47%) were called active. Another 12% or so got no clear call; they are omitted. The call rests on the fitted dose curve; in most records, active means well fitted cell-killing curve with a large enough effect; inconclusive means small, poorly fitted or top-dose-only effect, or effect the other way; inactive means flat fitted curve, though single readings scatter. The list shows a part of the results.
On the % scale 0 is the no-effect control and ±100 the full control effect.

This assay can be described thus: Cell viability qHTS assay in S16 Pmp22-F2sN cells. Further: nearly all actives have a fitted effect of over 65% in size. As to conditions: S16 Pmp22-F2sN Schwann cells viability, CellTiter-Glo, 24 h; series mostly up to 57.5 µM; activity change, negative = cytotoxicity: at the top concentration. The method, boiled down: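 Viability was measured by CellTiter-Glo luminescence (15 min, room temperature). This followed 24 h at 37 °C of compound exposure (23 nL pin transfer) in S16 Pmp22-F2sN Schwann cells, 500-1,000 per well.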
(Quantitative high-throughput screening tests each substance at several concentrations.)
Take `CCOCCc1nn2c(=O)cc(COC(=O)c3ccc(NC(=O)c4cccs4)cc3)nc2s1`: the “activity change, negative = cytotoxicity” value was inactive: -7.33%.

Turning to `CCCNC(=O)c1ccc(Cn2c(SCC(=O)NC(C)C)nc3ccccc3c2=O)cc1`, the “activity change, negative = cytotoxicity” value was inactive: 14.4%. Consider `CCCn1c2ccccc2c2cnn(CC(=O)NCC3CCN(Cc4ccccc4C)CC3)c(=O)c21`, for which the “activity change, negative = cytotoxicity” value was inactive: -16.4%. The result for `COC(=O)CN1C(=O)C(O)(c2c(C)[nH]c3ccccc23)c2ccccc21` (stereo not drawn) reads inactive: -8.87%. For `CC(=O)N1CCCc2cc(S(=O)(=O)Nc3ccc(Cl)cc3F)ccc21`, the “activity change, negative = cytotoxicity” value is inactive: -19.5%. As for `COCCNC(=O)CCn1nc(-c2ccc(Cl)cc2)c2ccccc2c1=O`, the “activity change, negative = cytotoxicity” value was inactive: -5.21%.

`CC1CCN(C(c2ccc(F)cc2)c2sc3nc(-c4ccco4)nn3c2O)CC1` (stereo not drawn): the “activity change, negative = cytotoxicity” value is inactive: 2.02%.

As for `COc1ccc(CC(=O)N2CCc3c([nH]c4ccccc34)C2c2ccc(SC)cc2)cc1` (stereo not drawn), the “activity change, negative = cytotoxicity” value is inactive: 0.464%.

For `O=C(Nc1ccc2oc(-c3cccnc3)nc2c1)c1ccccc1F`, the “activity change, negative = cytotoxicity” value is inactive: 0.22%. For `O=C(c1ccc2c(c1)N(Cc1ccccc1)C(=O)c1ccccc1S2(=O)=O)N1CCOCC1`, the “activity change, negative = cytotoxicity” value is inactive: 0.309%. For the compound `COc1ccc(NC(=O)C(NC(=O)/C=C\c2ccc3c(c2)OCO3)c2ccc(C)cc2)cc1` (stereo not drawn), the “activity change, negative = cytotoxicity” value was inactive: -9.88%. As to `CCc1ccc(-n2c(N3CCN(c4ccc(F)cc4)CC3)nc3ccccc3c2=O)cc1`, the “activity change, negative = cytotoxicity” value is inactive: -17.5%.

As for `COc1ccc(C(=O)N2CCN(C(=O)COc3ccccc3)CC2)cc1OC`, the “activity change, negative = cytotoxicity” value was inactive: 7.04%. With `COc1ccc(C)cc1NC(=O)Cn1nc(N2CCN(c3ccccc3OC)CC2)ccc1=O` the figure was inactive: 7.5%; with `COc1ccccc1Cc1nc2ccccc2nc1SCC(=O)NCc1ccc(C)cc1`, inactive: 1.28%; with `O=C(COCc1cc(-c2ccco2)on1)Nc1cc(Cl)ccc1O`, inactive: -4.92%. As to `COc1ccc(-c2nc(SCC(=O)NC3CCCC3)c(-c3ccc(F)cc3)[nH]2)cc1OC`, the “activity change, negative = cytotoxicity” value was inactive: -15.2%. For the compound `COc1ccccc1CNC(=O)C(=O)NCC(c1cccnc1)N1CCN(c2ccccc2)CC1` (stereo not drawn), the “activity change, negative = cytotoxicity” value was inactive: -26.4%. Take `Cc1noc(C)c1S(=O)(=O)N(CC(=O)NCc1ccccc1)c1ccc(C(C)C)cc1`: the “activity change, negative = cytotoxicity” value is inactive: -0.42%. Regarding `CCOC(=O)c1ccc(Nc2c(-c3ccc(N(C)C)cc3)nc3nc[nH]n23)cc1`, the “activity change, negative = cytotoxicity” value is inactive: -3.18%.

On to `O=C(CN1C(=O)CCc2cc(Br)ccc21)Nc1ccc(OC(F)(F)F)cc1`, for which the “activity change, negative = cytotoxicity” value was inactive: 17.6%. With `Cc1ccc(C)c(CN2CCCN(Cc3ccccc3C)S2(=O)=O)c1` the figure was inactive: -3.57%. Take `Cc1cc(C)cc(NC(=O)CN2C(=O)c3ccccc3Sc3ccc(C(=O)N4CCCC4)cc32)c1`: the “activity change, negative = cytotoxicity” value is inactive: 2.56%. `COc1ccc(Cn2c(=O)n(-c3ccc(C)cc3)c(=O)c3c2c2cc(C)ccc2n3C)cc1`: the “activity change, negative = cytotoxicity” value was inactive: -1.59%. `COc1cccc(CNC(=O)c2nn(C)c3c2CSc2ccccc2-3)c1`: the “activity change, negative = cytotoxicity” value is inactive: 1.34%. In the case of `COc1ccc(NC(=O)c2cnc3cc(C)ccn3c2=O)c(OC)c1`, the “activity change, negative = cytotoxicity” value was inactive: 10.5%.

In the case of `CC(C)CCNC(=O)CCCn1c(=O)c2cccn2c2ccccc21`, the “activity change, negative = cytotoxicity” value is inactive: 9.85%. In the case of `Cc1cccc(CS(=O)(=O)Cc2ccc(C(=O)NCc3ccc(F)cc3)o2)c1`, the “activity change, negative = cytotoxicity” value is inactive: -12.1%. With `COc1cccc(NC(=O)c2cnc(SCC(=O)N3CCCc4ccccc43)n(C)c2=O)c1`, the “activity change, negative = cytotoxicity” value is inactive: -2.74%. With `COc1ccccc1N1CCN(S(=O)(=O)c2cc(C(=O)Nc3ccc(Oc4ccccc4)cc3)ccc2F)CC1` the figure was inactive: -28%; with `Cc1ccc2nc(-c3ccc(Cl)c(NC(=O)COc4ccc([N+](=O)[O-])cc4)c3)oc2c1`, inactive: 2.79%; with `O=C(Cn1c(=O)n(-c2ccccc2)c(=O)c2c3c(sc21)CCC3)c1ccc(Br)cc1`, inactive: 11.1%. On to `Cc1noc(-c2ccc(-c3noc(-c4ccc(Cl)cc4)n3)cc2)n1`, for which the “activity change, negative = cytotoxicity” value was inactive: 3.49%. The result for `CCN(C(=O)c1cc2c(=O)oc3ccccc3c2s1)c1ccccc1F` reads inactive: -1.59%; that for `CCc1ccc2occ(CC(=O)Nc3c(C(=O)c4ccccc4)oc4ccccc34)c2c1`, inactive: 4.82%. As for `CCOC(=O)c1c(-c2ccccc2)oc2ccc(NS(=O)(=O)c3ccc(C)cc3)cc12`, the “activity change, negative = cytotoxicity” value is inactive: -16.8%. As for `CCN1C(=O)c2ccccc2Sc2ccc(NC(=O)Nc3cc(C)cc(C)c3)cc21`, the “activity change, negative = cytotoxicity” value is inactive: -0.183%.

For `COc1ccccc1Cn1c(C2CC(=O)N(c3ccccc3OC)C2)nc2ccccc21` (stereo not drawn), the “activity change, negative = cytotoxicity” value is inactive: -2.47%. Take `Cc1ccnc(NC(c2cccc(O)c2)c2ccc3ccc(C)nc3c2O)c1` (stereo not drawn): the “activity change, negative = cytotoxicity” value was inactive: -2.48%. Consider `Cc1ccc(CNC(=O)c2cc3sc(Cl)cc3n2C)cc1`, for which the “activity change, negative = cytotoxicity” value was inactive: 19.2%. Take `O=C(Nc1cc(F)ccc1F)C1CCN(C(=O)c2cnn(-c3ccccc3)c2-n2cccc2)CC1`: the “activity change, negative = cytotoxicity” value was inactive: -11.7%. With `Cc1ccc(NC(=O)CSc2nncn2C)c(C)c1` the figure was inactive: 5.93%. With `COc1ccc(NC(=O)CSC2=Nc3ccccc3C3=NC(CCC(=O)NC4CCCCC4)C(=O)N23)cc1Cl` (stereo not drawn), the “activity change, negative = cytotoxicity” value is inactive: -11.7%. On to `COc1ccc(-c2noc(-c3nnn(-c4ccc(C)cc4C)c3C)n2)cc1`, for which the “activity change, negative = cytotoxicity” value was inactive: -5.13%.

On to `COc1ccccc1NC(=O)CSCc1cc(=O)c2cccc(Cl)c2[nH]1`, for which the “activity change, negative = cytotoxicity” value was inactive: 17.9%. With `COc1ccc(OC)c(C2CC(=O)Nc3c2c(=O)n(C)c2ncnn32)c1` (stereo not drawn) the figure was inactive: 1.32%; with `COc1ccc(Cl)c2sc(NC(=O)c3ccc(S(=O)(=O)N4CCCC4)cc3)nc12`, inactive: 6.54%. With `Cc1ccc(C)c(NC(=O)Cn2nnc(C(=O)NCCc3ccccc3)c2N)c1`, the “activity change, negative = cytotoxicity” value was inactive: 3.21%.
